Assay results published in PubChem BioAssay AID720708 (National Center for Advancing Translational Sciences (NCATS), 2013).
Screen size: about 360,000 compounds; about 660 (0.18%) were called active. Inconclusive results, whose numbers are uncertain, are shown with a selection of clear calls. Calls follow the shape of the dose curve; as a rule, active = well fitted inhibition curve with a large enough effect; inconclusive = small, poorly fitted or top-dose-only effect; inactive = no such curve, though single readings can be large or run the other way. Potencies of inconclusive entries are left out as doubtful fits.

What follows are compounds tested against Rap guanine nucleotide exchange factor 4 (Homo sapiens) (UniProt Q8WZA2) (assay: qHTS for Antagonist of cAMP-regulated guanine nucleotide exchange factor 2 (EPAC2): primary screen). Conditions: EPAC2 GEF exchange of Rap1B-BODIPY-GDP, fluorescence; activity, negative = inhibition: at 114 µM (top of the series) unless noted.
% is scaled to controls: 0 for no effect and ±100 for the full control effect; potency is read from the fitted curve at half-maximal effect; tags tell the direction and shape of the fitted curve.
Also: nearly all actives have a fitted effect of over 45% in size.

Sequence of UniProt Q8WZA2 (Q8WZA2 whole entry, looked up): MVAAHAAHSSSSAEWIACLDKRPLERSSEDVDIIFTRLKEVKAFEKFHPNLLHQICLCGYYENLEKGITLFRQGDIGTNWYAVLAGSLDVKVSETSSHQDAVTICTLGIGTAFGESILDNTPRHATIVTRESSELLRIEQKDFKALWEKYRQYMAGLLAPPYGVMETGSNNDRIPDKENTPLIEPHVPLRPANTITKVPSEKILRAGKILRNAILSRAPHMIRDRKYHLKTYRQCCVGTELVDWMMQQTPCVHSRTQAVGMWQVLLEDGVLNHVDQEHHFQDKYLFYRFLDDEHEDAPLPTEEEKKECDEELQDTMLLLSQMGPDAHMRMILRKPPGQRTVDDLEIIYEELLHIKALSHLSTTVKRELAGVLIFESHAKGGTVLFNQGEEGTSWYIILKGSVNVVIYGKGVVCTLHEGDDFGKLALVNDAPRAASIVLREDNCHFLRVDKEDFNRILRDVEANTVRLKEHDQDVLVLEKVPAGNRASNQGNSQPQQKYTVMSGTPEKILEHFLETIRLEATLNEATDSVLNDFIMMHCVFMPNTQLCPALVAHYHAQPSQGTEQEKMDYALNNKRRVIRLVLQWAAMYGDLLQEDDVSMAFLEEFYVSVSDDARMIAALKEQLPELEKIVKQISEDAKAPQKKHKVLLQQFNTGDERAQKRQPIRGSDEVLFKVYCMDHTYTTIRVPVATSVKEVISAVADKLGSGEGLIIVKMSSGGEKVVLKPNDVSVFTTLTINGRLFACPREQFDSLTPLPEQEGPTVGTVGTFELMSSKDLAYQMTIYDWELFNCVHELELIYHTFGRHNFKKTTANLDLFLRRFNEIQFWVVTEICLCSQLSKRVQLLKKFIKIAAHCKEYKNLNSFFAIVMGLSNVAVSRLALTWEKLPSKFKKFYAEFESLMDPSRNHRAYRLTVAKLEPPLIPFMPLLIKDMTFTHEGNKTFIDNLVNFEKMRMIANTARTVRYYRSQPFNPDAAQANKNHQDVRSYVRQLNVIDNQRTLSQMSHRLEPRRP

Row | SMILES | Potency | activity, negative = inhibition
1 | COc1ccc(C2CC(O)(c3ccccc3)Oc3cc(OC)c(OC)c(OC)c32)cc1 (configuration not stated) | inconclusive [inhibitor, partial curve] | 
2 | O=C(OCc1cccc(C(F)(F)F)c1)c1cc(S(=O)(=O)N2CCOCC2)ccc1F |  | inconclusive: -19% [inhibitor]
3 | CC(C)(Sc1ccc(CCN(CCCCC2CCCCC2)C(=O)NC2CCCCC2)cc1)C(=O)O | active: 56.2 µM | 
4 | C/C(=N/N=C(/C)c1cccs1)c1cccs1 | inconclusive [inhibitor, partial curve] | 
5 | COc1cc(C(=O)C(=O)N2CCN(c3ccccc3)CC2)cc(OC)c1OC |  | inactive: 8.82%
6 | CCOc1ccc(CCN2C(=O)C(=O)N([C@@H](CC(C)C)CN3CCC[C@H]3CN3C(=O)C(=O)NC[C@@H]3Cc3ccc(O)cc3)C[C@@H]2CC(C)C)cc1 | inconclusive [inhibitor, partial curve] | 
7 | Fc1cccc(Cc2c(-c3cccc(Cl)c3)nc3ccc(Cl)cn23)c1 | inconclusive [inhibitor, partial curve] | 
8 | COCOCCn1cc(CN2CCS(=O)(=O)N(Cc3ccc(-c4ccc(C)cc4)cc3)C(CC(C)C)C2=O)nn1 (configuration not stated) | inconclusive [inhibitor, partial curve] | 
9 | C#CCOCCOCCOCCNc1nc(N2CCN(C(=O)[C@H]([C@@H](C)CC)n3cc(CCCN=C(N)N)nn3)CC2)nc(N2CCN(C(=O)[C@H]([C@@H](C)CC)n3cc(CCC(=O)O)nn3)CC2)n1 |  | inactive: 12.1%
10 | Cc1noc(C)c1COc1ccccc1C(=O)NC(C)c1ccc(Cl)cc1 (configuration not stated) | inconclusive [inhibitor, partial curve] | 
11 | CCc1ccc(/C=C2\SC(=S)N(CCCC(=O)Nc3ccccc3C(=O)O)C2=O)cc1 | inconclusive [inhibitor, partial curve] | 
12 | CC(Oc1ccc2c(-c3ccccc3)cc(=O)oc2c1)C(=O)N[C@H](Cc1c[nH]c2ccccc12)C(=O)O (some centres not stated) | inconclusive [inhibitor, full curve] | 
13 | CCOC(=O)c1sc2nc3c(SCCC(=O)O)cc(C(=O)c4cc(OC)ccc4O)cn3c(=O)c2c1C | inconclusive [inhibitor, single point] | 
14 | COc1cccc(/C=N/NC(=O)c2nnn(-c3nonc3N)c2CN(C)C2CCCCC2)c1 |  | inactive: -10.2%
15 | COc1ccc(C(=O)Oc2ccc(Br)cc2C(=S)N2CCOCC2)cc1 | inconclusive [inhibitor, full curve] | 
16 | CC1CCCN(c2ccc(C(=O)NCc3cccs3)cn2)C1 (configuration not stated) |  | inactive: -0.284%
17 | CC(C)(C)C1=CC(O)(c2ccccc2)C=C(C(C)(C)C)C1=O | inconclusive [inhibitor, partial curve] | 
18 | COc1ccc(N(CC(=O)NC2CCCCC2)S(=O)(=O)c2c(C)[nH]c(=O)[nH]c2=O)cc1 |  | inactive: -0.251%
19 | Cc1ccc(S(=O)(=O)N2CCN(c3nc4ccccc4nc3-n3nc(C)cc3C)CC2)cc1 |  | inactive: -9.07%
20 | CCCS(=O)(=O)NC(=O)C1(C)CCN(C(=O)c2cccc(OC(F)(F)F)c2)C1 (configuration not stated) | inconclusive [inhibitor, single point] | 
21 | O=[N+]([O-])c1ccc(C2=NN(c3ccccc3)C(c3ccco3)C2)cc1 (configuration not stated) |  | inactive: 11.4%

Row | SMILES | Potency | activity, negative = inhibition
22 | Cc1cc(C)nc(SCc2ccc(F)cc2)n1 | inconclusive [inhibitor, partial curve] | 
23 | Cc1cc(-c2ccc(/C=N/n3cnnc3)o2)ccc1Cl | inconclusive [inhibitor, single point] | 
24 | CC(=O)Oc1ccc2c(c1)Oc1cc(OC(C)=O)ccc1C21OC(=O)c2ccccc21 | active: 39.8 µM | 
25 | CCN(CC)c1ccc(C=Nc2ccc(N(C)C)cc2)c(O)c1 |  | inactive: 14.1%
26 | COc1ccccc1C(C#N)c1cccc(Cl)n1 (configuration not stated) | inconclusive [inhibitor, partial curve] | 
27 | O=C(Nc1ccc2nc(-c3ccco3)[nH]c2c1)c1cccs1 |  | inactive: -8.8%
28 | CSc1nc2cc(Oc3cccc(Cl)c3Cl)c(Cl)cc2[nH]1 | inconclusive [inhibitor, partial curve] | 
29 | CCOC(=O)c1ccc(NC(=S)NCCc2ccc(F)cc2)cc1 | inconclusive [inhibitor, full curve] | 
30 | CCCc1cc(Nc2ccc(C)cc2)n2ncnc2n1 | inconclusive [inhibitor, partial curve] | 
31 | COc1ccccc1OCc1cc(C(=O)N2CCN(C)C(c3ccccc3)C2)no1 (configuration not stated) |  | inactive: -9.27%
32 | Clc1ccc(C=Cc2ccccn2)c(Cl)c1 | inconclusive [inhibitor, partial curve] | 
33 | CCOc1ccc(S(=O)(=O)n2ccc(C)n2)c2ccccc12 | inconclusive [inhibitor, full curve] | 
34 | CN1CCCN(C2C3CC4CC(C3)CC2C4)CC1 (configuration not stated) |  | inactive: 2.87%
35 | O=C(Nc1ccccc1N1CCCCC1)c1cccs1 | inconclusive [inhibitor, single point] | 
36 | CC(=O)N1CCN(C(=O)COc2ccc(Br)cc2)CC1 | inconclusive [inhibitor, single point] | 
37 | CN(C)S(=O)(=O)c1cccc(NC(=O)COC(=O)CNC(=O)c2cccc([N+](=O)[O-])c2)c1 |  | inactive: 1.87%
38 | O=C1NC[C@H](Cc2ccc(O)cc2)N(C[C@@H]2CCCN2C[C@H](Cc2ccccc2)N2C[C@H](Cc3ccc(O)cc3)N(CC3CCCCCC3)C(=O)C2=O)C1=O | inconclusive [inhibitor, full curve, poor fit] | 
39 | COc1ccc(-c2c(-c3ccc(O)cc3O)n[nH]c2C(F)(F)F)cc1 | inconclusive [inhibitor, partial curve] | 
40 | Cc1ccc(C)c(OCC(=O)Nc2ccccc2N2CCCC2)c1 | inconclusive [inhibitor, full curve] | 
41 | CC(C)OCCCNC(=S)Nc1ccc(S(N)(=O)=O)cc1 |  | inactive: 23.1%
42 | O=C(Nc1ccccc1)c1ccc(Nc2c([N+](=O)[O-])cc([N+](=O)[O-])c3ccccc23)cc1 | inconclusive [inhibitor, full curve, poor fit] | 
